# The RNAGym collection of RNA variant scans (doi:10.1073/pnas.2313332121)
# This sample is rich in variants without activity.
# B1: TPR 5TU (parent)
# chain: GGAUCUUCUCGAUCUAACAAAAAAGACAAAUCUGCCACAAAGCUUGAGAGCAUCUUCGGAUGCAGAGGCGGCAGCCUUCGGUGGCGCGAUAGCGCCAACGUUCUCAACUAUGACACGCAAAACGCGUGCUCCGUUGAAUGGAGUUUAUCAUG
# Variants of: B1
# Assay: polymerase ribozyme fitness, log enrichment relative to wild type (log ratio); higher = more active; in vitro selection for triplet polymerase activity
# How it was run: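 Fitness is a logarithmic measure of how a genotype enriched relative to the wild type, with replicate averages weighted by inverse variance. The logarithm uses base 2, and enrichment came from Illumina sequencing of input and output libraries. Those libraries were PCR-built, transcribed mutants of each subunit of a heterodimeric triplet polymerase ribozyme, passed through one triplicate in vitro selection round that included frozen incubation at −7 °C, gel excision of extended constructs and streptavidin-bead capture. Genotypes were kept only if they had ≥10 input reads and ≥1 read per output.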
row,Variant,polymerase ribozyme fitness (log ratio)
1,U33A A115G U139G,≤ -4.2
2,G34U C35A C85A C125A G136C,≤ -4.2
3,U33G G71A C96U A107C U135A,≤ -4.2
4,U33A A91C,≤ -4.2
5,C32U G48C G59A G84U U127C,≤ -4.2
6,U33A G48C C57U C85U A115G C129G G141U,≤ -4.2
7,U33G A40G C54G G59A A66G A91U C99G G126C,≤ -4.2
8,C32U G50C U55A A89G G133C,≤ -4.2
9,U33G G42A A52G U53A A73U U144G,≤ -4.2
10,U33A A49C G50C C76A C85G A138U U151C,≤ -4.2
11,U33A U78G A91U G94A A142C,≤ -4.2
12,C32U C96G,-1.58
13,G34C C54U G86U A98C G117U,≤ -4.2
14,U33A G94C C95U A113C,≤ -4.2
15,U33A C96U,≤ -4.2
16,U33C G34U G48A A52G C54U C103G,≤ -4.2
17,U33A C57U A64G G100U G140A,≤ -4.2
18,U33C C54U G67U C87A C96G A97G U104A C125G U127C U134A,≤ -4.2
19,G34U A39C G59A A89G C114U A150U,≤ -4.2
20,U33C A115G,≤ -4.2
21,C32U G59A G80A U90G G92A C125U G133A A138G G152A,≤ -4.2

row,Variant,polymerase ribozyme fitness (log ratio)
1,C32U A37C C76A A89C C95A C96A U127G G133C G141A,≤ -4.2
2,U33G U61A C75A G94C C103G A137C U146C,≤ -4.2
3,G34A A39C C93A U101A G133U,≤ -4.2
4,G34A U55A,-2.46
5,U33G A41U A47U U55C U77C U82G A89G C95A A97C A119G G141C,≤ -4.2
6,U33C G67U C69A C93U,≤ -4.2
7,U33G U53G G80A C87A C96G A115C C132A,≤ -4.2
8,U33C G80C U90G G92A,≤ -4.2
9,U33A A73U C87U C93G C105U C108G,≤ -4.2
10,G34A G84A C95G,-0.00509
11,G34A G92U C96G A147C U148G G152U,≤ -4.2
12,U33A C43U A60U C93A C96U U151C G152A,≤ -4.2
13,U33G G46C G71A U78G U90G A110C U127C G141C,≤ -4.2
14,G34A C85G U104A G143U,≤ -4.2
15,G34A A39U G88A A150G,≤ -4.2
16,U33A C38U G117C,≤ -4.2
17,U33C U56A A60C C76A G86A G143U,≤ -4.2
18,G34A U55A G71C C95U U151A,≤ -4.2
19,U33A A47U C76U C85A C95U A115U C131G,≤ -4.2
20,U33G C54U C96G A147U,-3.24
21,C32U G48C C63U G65C C87U A91U A121C A150G,≤ -4.2

row,Variant,polymerase ribozyme fitness (log ratio)
1,U33G C57G A89U A138U,≤ -4.2
2,U33A C75U G84A A115G A142U,≤ -4.2
3,G34A C87G C93U C103G C118U U151A,≤ -4.2
4,U33G C38U C54G C96U,≤ -4.2
5,U33G U56A C69U C87G U101C,≤ -4.2
6,G34A U55G C87G G88U G141C,≤ -4.2
7,C32U A37C G68A G80A C87U C95G,≤ -4.2
8,U33C C36U G59A U111C G128U,≤ -4.2
9,U33A A47C C99A,≤ -4.2
10,G34A C87A C116G U139A,≤ -4.2
11,C32U A37U U56C C95U U145G U148G,≤ -4.2
12,G34A G59A C93G A106C,≤ -4.2
13,U33A A49U A52C C54A C75G C87G A107C G126A G143C,≤ -4.2
14,C32U A41C A52C U82C U90G A107C,≤ -4.2
15,U33A G68A G94C C105U G141U,≤ -4.2
16,U33A A49G A60G A89C C93U G141C,≤ -4.2
17,U33G G70U G83U C103G C131G,≤ -4.2
18,U33G G80C G92A C131A U151A,-4.15
19,C32U C108G C118U G126C A142C,≤ -4.2
20,U33G A66G G74U C116G,≤ -4.2
21,U33G C57A C75U G94U,≤ -4.2

row,Variant,polymerase ribozyme fitness (log ratio)
1,G34U G83C G94A A119U C131A,≤ -4.2
2,G34C C93U A121G U144G U146A,≤ -4.2
3,U33A G42A U45C G65U C87A C118G,≤ -4.2
4,G34A C79A C87A U139A,≤ -4.2
5,G34U G80C U102G U148G,≤ -4.2
6,G34U G59A A73G C96G U135G,≤ -4.2
7,C32U C35A G58U C96U C125U,≤ -4.2
8,U33G U61A C76A,≤ -4.2
9,G34U A47U,-2.01
10,U33C C54G G71U C96U U102G G126C,≤ -4.2
11,U33C G143C,≤ -4.2
12,G34A C79U A107C C108G C116G,≤ -4.2
13,G34A G42C G68A C93G U144A U151A,≤ -4.2
14,G34A G48C G59A U102G C114A G143U A147G,≤ -4.2
15,U33G G81A C93U C125U A142C,≤ -4.2
16,G34A A39U C96A U135C G140C,≤ -4.2
17,C32U C36U U53A C72U G136A,≤ -4.2
18,U33G G46C C95U C99A A107G G133U,≤ -4.2
19,U33G G68U A89G U109A,≤ -4.2
20,C32U A89U,-2.63
21,U33G G46A A49C U77C A98U C99U G152U,≤ -4.2
